Measurements: PubChem BioAssay AID588342 (National Center for Advancing Translational Sciences (NCATS), 2011)
Values joined by “and” are separate entries in the source; they are usually repeats but may differ in a detail not shown here. Identical values can stand only once. About 25,000 (6.9%) of roughly 360,000 compounds were called active. This list was built around the results that the source calls inconclusive (neither active nor inactive); the mix of calls is not that of the screen. The call rests on the fitted dose curve; in most records, active means well fitted inhibition curve with a large enough effect; inconclusive means small, poorly fitted or top-dose-only effect; inactive means flat fitted curve, though single readings scatter. Potencies of inconclusive entries are doubtful fits and often do not repeat.

Biological target: Luciferin 4-monooxygenase (Photinus pyralis) (UniProt P08659)
Test: qHTS profiling assay for firefly luciferase inhibitor/activator using purifed enzyme and Km concentrations of substrates (counterscreen for miR-21 project); further: nearly all actives have a fitted effect of over 55% in size
Conditions: purified FLuc, luminescence inhibition; series mostly up to 57.5 µM
Method in brief: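 Purified P. pyralis luciferase, 10 nM final, with Km-level 10 uM D-luciferin and 10 uM ATP in 50 mM Tris acetate pH 7.5, 10 mM Mg acetate, 0.01% Tween-20, 0.05% BSA; 6-point qHTS titration about 60 µM downward; luminescence read.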
Potency means the concentration at half of the fitted maximal effect; tags describe the fitted curve by direction and shape.

Sequence of UniProt P08659 (P08659 whole entry, looked up): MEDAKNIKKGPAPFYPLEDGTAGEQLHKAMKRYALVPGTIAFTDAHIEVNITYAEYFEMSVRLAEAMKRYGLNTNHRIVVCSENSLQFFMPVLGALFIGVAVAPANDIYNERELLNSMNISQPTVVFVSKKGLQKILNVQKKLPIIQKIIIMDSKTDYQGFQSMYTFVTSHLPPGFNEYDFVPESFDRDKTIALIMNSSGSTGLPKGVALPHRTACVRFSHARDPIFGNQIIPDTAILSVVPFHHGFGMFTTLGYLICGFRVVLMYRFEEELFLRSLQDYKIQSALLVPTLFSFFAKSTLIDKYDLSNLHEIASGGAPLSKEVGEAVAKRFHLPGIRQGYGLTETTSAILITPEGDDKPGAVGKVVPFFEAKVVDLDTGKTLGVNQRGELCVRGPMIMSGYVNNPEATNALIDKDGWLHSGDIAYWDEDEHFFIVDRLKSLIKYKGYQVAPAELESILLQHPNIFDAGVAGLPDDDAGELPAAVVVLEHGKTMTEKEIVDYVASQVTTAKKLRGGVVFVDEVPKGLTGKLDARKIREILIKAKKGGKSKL

Row | SMILES | Potency
1 | CCOC(=O)C1(Cc2cccc(Cl)c2)CCCN(C(=O)CCOC)C1 (centres undefined) | inconclusive: 37.9 µM [inhibitor, partial curve, poor fit]
2 | COc1ccc(CN(C)Cc2c(O)ccc3ccccc23)cc1 | inconclusive: 37.9 µM [inhibitor, single point]
3 | Cc1cc(C)cc(NC(=O)CSc2nc(=O)n(CCN3CCOCC3)c3c2CCC3)c1 | inactive
4 | COc1nsnc1NS(=O)(=O)c1ccc(NC(=S)NC(=O)c2cccnc2)cc1 | inconclusive: 30.1 µM [inhibitor, partial curve, poor fit]
5 | O=C(COc1ccc(Cl)cc1)N1CCN(C(=O)c2cccs2)CC1 | inactive
6 | NC(=O)c1nn(-c2ccccc2)nc1NC(=O)CN1CCCCC1 | inconclusive: 19 µM [inhibitor, partial curve]
7 | O=C(NCc1cccnc1)c1ccc(NC(=O)c2cccc([N+](=O)[O-])c2)cc1 | inactive
8 | Cn1c(SCC(=O)c2ccc(F)cc2)nnc1-c1cnccn1 | inconclusive: 21.3 µM [inhibitor, partial curve, poor fit]
9 | Cc1nc2ccccc2nc(=O)c1NNc1ccccc1 | inconclusive: 3.38 µM [inhibitor, partial curve, poor fit] and inconclusive: 5.36 µM [inhibitor, partial curve, poor fit]
10 | O=C(C1CC(c2ccccc2O)=NO1)N1CCc2ccccc2C1 (centres undefined) | inconclusive: 37.9 µM [inhibitor, single point]
11 | Cc1cc(C(=O)Nc2ccccc2)oc(=O)c1 | inconclusive: 23.9 µM [inhibitor, single point]
12 | COc1ccc(Cn2c(O)c(C=Nc3ccccc3C(=O)O)c3ccccc3c2=O)cc1 | inactive
13 | Cc1ccc(Cl)c(OCCN2CCc3ccccc3C2)c1 | inconclusive: 30.1 µM [inhibitor, partial curve, poor fit]
14 | N#C/C(=C\c1ccc(O)c([N+](=O)[O-])c1)C(=O)NCc1ccccc1 | inconclusive: 16.9 µM [inhibitor, partial curve]
15 | S=C1NC(c2ccccc2)=NCN1c1ccc(Br)cc1 | inconclusive: 6.75 µM [inhibitor, partial curve, poor fit]
16 | O=C(CSc1n[nH]c(-c2ccncc2)n1)Nc1ccc(Cl)c(C(=O)O)c1 | inconclusive: 37.9 µM [inhibitor, partial curve, poor fit]
17 | Cc1ccc(CSc2ncnc3c2cnn3-c2ccc(C)cc2)cc1 | inactive
18 | CN(C)CCCN(C(=O)c1ccc(C(=O)c2ccccc2)cc1)c1nc2cc3c(cc2s1)OCCO3 | inactive
19 | CCN1CCN(C(=O)c2ccc(C(F)(F)F)cc2)CC1 | inactive
20 | COc1cccc(-c2cc(C(=O)N3CCc4ccccc4C3)no2)c1 | inconclusive: 37.9 µM [inhibitor, single point]
21 | CSc1ccc(-c2nc(CN(C)C3CCOC3)c(C)o2)cc1 (centres undefined) | inconclusive: 16.9 µM [inhibitor, partial curve]
22 | O=C(O)C(=O)/C(=C\c1ccsc1)c1ccc2ccccc2n1 | inconclusive: 23.9 µM [inhibitor, partial curve, poor fit]

Row | SMILES | Potency
23 | CC(=O)C1=C(C)NC(SCC(=O)c2ccc(-c3ccccc3)cc2)=C(C#N)C1c1cccnc1 (centres undefined) | inconclusive: 37.9 µM [inhibitor, partial curve, poor fit]
24 | O=S1(=O)CC/C(=N\Nc2ccccc2)c2ccsc21 | inconclusive: 23.9 µM [inhibitor, single point]
25 | Cc1ccccc1C(=O)N1CC(=O)Nc2ccc(Cl)cc2C1c1ccccc1 (centres undefined) | inactive
26 | CCN(CC)c1ccc(/C=N/NC(=O)CNC(=O)C2COc3ccccc3O2)c(O)c1 (centres undefined) | inconclusive: 26.9 µM [inhibitor, single point]
27 | O=C(COC(=O)c1cn(-c2ccccc2)nc1-c1cccs1)NC1CC1 | inconclusive: 7.57 µM [inhibitor, partial curve, poor fit]
28 | COCCn1c(-c2ccc(OC)cc2)nc2ccccc21 | active: 19 µM
29 | CSc1ccccc1NC(=O)c1ccc2c(c1)CCN2S(C)(=O)=O | inconclusive: 26.9 µM [inhibitor, partial curve, poor fit]
30 | Cc1ccccc1C(=O)NC(=S)Nc1sc2c(c1C#N)CCC(C)C2 (centres undefined) | inconclusive: 26.9 µM [inhibitor, partial curve]
31 | Cc1cccc(-c2noc(-c3cccnc3NCc3ccc(Cl)cc3)n2)c1 | inconclusive: 8.49 µM [inhibitor, partial curve, poor fit]
32 | COc1ccc2oc(=O)c(C(=O)N3CCN(c4ccccc4)CC3)cc2c1 | inconclusive: 26.9 µM [inhibitor, partial curve, poor fit]
33 | CC(=O)Cc1nsc(NC(=O)c2oc(-c3ccccc3Cl)cc2C)n1 | inconclusive: 15.1 µM [inhibitor, partial curve]
34 | COc1ccc(S(=O)(=O)Nc2ccc3oc4c(c3c2)CCCC4)cc1 | inconclusive: 33.8 µM [inhibitor, partial curve, poor fit]
35 | CN(Cc1ccccc1)C(=O)c1c[nH]c2ccc(S(=O)(=O)N3CCOCC3)cc2c1=O | inactive
36 | CCc1ccc(NC(=O)C(=O)NNC(=O)COc2cccc(OC)c2)cc1 | inconclusive: 21.3 µM [inhibitor, partial curve, poor fit]
37 | COc1ccc(/C=C2\SC(N3CCc4ccccc4C3)=NC2=O)cc1 | inconclusive: 33.8 µM [inhibitor, single point]
38 | COc1cccc(NC(=O)CCNC(=O)C2CCN(S(=O)(=O)c3ccc(F)cc3)CC2)c1 | inactive
39 | COC(=O)c1cc(-c2ccc3c(c2)OCO3)nc2ccccc12 | active: 16.9 µM
40 | Cc1c(C(=O)N2CCN(c3ccccc3)CC2)oc2c(F)cccc12 | inconclusive: 26.9 µM [inhibitor, partial curve, poor fit]
41 | CN(C(=O)COC(=O)CSc1ccc(C(N)=O)cc1[N+](=O)[O-])C1CCCCC1 | inconclusive: 26.9 µM [inhibitor, single point]
42 | NC(=O)C1CCN(c2nc(-c3ccccc3F)cs2)CC1 | inconclusive: 9.53 µM [inhibitor, partial curve]
43 | CCOC(=O)c1sc2ccccc2c1S(=O)(=O)Nc1ccc(C(C)=O)cc1 | inconclusive: 21.3 µM [inhibitor, partial curve]
44 | NNc1nc2c(F)cc(F)cc2s1 | inconclusive: 16.9 µM [inhibitor, partial curve, poor fit]

Row | SMILES | Potency
45 | Cc1ccc(NC(=O)CCc2c(C)nn(-c3ccc(N4CCOCC4)nn3)c2C)cc1 | inconclusive: 23.9 µM [inhibitor, partial curve, poor fit]
46 | COc1ccc(Nc2nn3c(=O)c4ccccc4nc3s2)cc1 | inconclusive: 0.536 µM [inhibitor, full curve, poor fit]
47 | CCN(CC)CCn1c(NC(=O)c2ccccc2O)nc2ccccc21 | inconclusive: 37.9 µM [inhibitor, single point]
48 | CCc1sc(C(=O)Nc2ccsc2C(=O)OC)cc1Br | inconclusive: 19 µM [inhibitor, partial curve, poor fit]
49 | COc1ccc(Cl)cc1NC(=O)N(C)CCc1c(C)nn(C)c1C | inactive
50 | COc1ccc(NC(=O)Cc2nnc(SCC(=O)NC3=NCCS3)n2C)cc1 | inconclusive: 15.1 µM [inhibitor, partial curve]
51 | Cn1c(SCc2ccccc2Cl)nc2ccccc21 | active: 6.01 µM
52 | NC(=O)COc1ccc(/C=C2\C(=O)ON=C2c2ccccc2)cc1 | inconclusive: 21.3 µM [inhibitor, partial curve, poor fit]
53 | O=C(COc1ccc(F)cc1Cl)Nc1cccc(S(=O)(=O)N2CCCC2)c1 | active: 13.5 µM
54 | Cc1cccnc1CC(C)NC(=O)c1cc(COc2cncc(Cl)c2)on1 (centres undefined) | inconclusive: 23.9 µM [inhibitor, single point]
55 | O=C(COC(=O)c1ccccc1NC(=O)c1ccco1)Nc1ccc2c(c1)OCO2 | inconclusive: 21.3 µM [inhibitor, partial curve, poor fit]
56 | NC(=O)c1ccc(NC(=O)COC(=O)c2c3c(nc4ccccc24)/C(=C\c2ccc4c(c2)OCO4)CCC3)cc1 | inconclusive: 30.1 µM [inhibitor, single point]
57 | O=C(OCC1CC(c2ccccc2Cl)=NO1)c1ccc(Br)cc1 (centres undefined) | inconclusive: 23.9 µM [inhibitor, single point]
58 | CCOC(=O)c1ccc(-c2ccc(C(=O)Nc3cccnc3)o2)cc1 | active: 15.1 µM
59 | O=C(COC(=O)C1=NNC(=O)CC1)NCCc1ccccc1 | inconclusive: 37.9 µM [inhibitor, partial curve, poor fit]
60 | COc1ccc(-c2cn3cccc(C)c3n2)cc1F | active: 6.01 µM
61 | COc1ccccc1OCc1cc(C(=O)NCc2ccc(N3CCCC3=O)cc2)no1 | inconclusive: 23.9 µM [inhibitor, partial curve, poor fit]
62 | Cc1nc2nc(NC(=O)c3ccc(C(C)(C)C)cc3)[nH]n2c(=O)c1Cc1ccccc1 | inconclusive: 5.36 µM [inhibitor, partial curve, poor fit]
63 | CCOC(=O)N1CCC(NC(=O)c2ccc3c(c2)sc2nc(-c4ccc(OC)cc4)cn23)CC1 | inconclusive: 30.1 µM [inhibitor, partial curve, poor fit]
64 | Cc1nc(Oc2ccc(S(=O)(=O)N3CCOCC3)cc2Cl)c2c3c(sc2n1)CCCC3 | inactive
